PubChem BioAssay (NCI)
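How tested: cells in 96-well plates exposed to compound for 48 hours at five concentrations. GI50 is the concentration that inhibits growth by half.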 A number of entries come with more than one value. The other results are left out here. An entry can have further records. For some assays here: The tests behind the records often covered other concentration ranges, not given here; a value can be the end of its range. Brackets tell where a record comes from. The letters are not those of the source and start again with each entry. For some assays here: Values given together are repeated measurements in other runs, samples, wells, individuals or studies.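 TGI: total growth inhibition.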

Tests used:
Assay in all cases: inhibition of tumour cell growth, NCI panel, 48 h
[1] = system: 786-0 renal
[2] = system: A549 NSCLC
[3] = system: ACHN renal
[4] = system: BT-549 breast
[5] = system: CAKI-1 renal
[6] = system: CCRF-CEM leukemia
[7] = system: COLO 205 colon
[8] = system: DU-145 prostate
[9] = system: EKVX NSCLC
[10] = system: HCT-116 colon
[11] = system: HCT-15 colon
[12] = system: HL-60(TB) leukemia
[13] = system: HOP-62 NSCLC
[14] = system: HS 578T breast
[15] = system: HT29 colon
[16] = system: IGROV1 ovarian
[17] = system: K-562 leukemia
[18] = system: KM12 colon
[19] = system: LOX IMVI melanoma
[20] = system: M14 melanoma
[21] = system: MALME-3M melanoma
[22] = system: MCF7 breast
[23] = system: MDA-MB-231 breast
[24] = system: MDA-MB-435
[25] = system: MDA-N

## CCC1(O)CC(OC2CC(N(C)C)C(OC3CC4OC5CC(=O)C(C)OC5OC4C(C)O3)C(C)O2)c2c(cc3c(c2O)C(=O)c2c(O)ccc(O)c2C3=O)C1C(=O)OC (centres undefined)
[1]
  GI50: < 0.1 nM, 3.6 nM [sample A, 1 test] and 0.861 nM [sample B, mean of 2 tests]
  TGI: 1.63 nM, 317 nM [sample A, 1 test] and 508 nM, 425 nM [sample B, mean of 2 tests]
[2]
  GI50: < 0.1 nM, 1.73 nM [sample A, 1 test] and 9.63 nM [sample B, mean of 3 tests] and 3.42 nM [sample B, mean of 4 tests]
  TGI: 11.8 nM [sample A, 1 test] and 2.92 µM [sample B, 1 test] and 2.49 µM [sample B, mean of 3 tests]
[3]
  TGI: 12.6 µM [1 test] and 4.57 nM [mean of 2 tests]
[4]
  GI50: < 0.1 nM [sample A, 1 test] and 1.61 nM [sample B, mean of 2 tests]
  TGI: 1.25 nM [sample A, 1 test] and 34.2 nM [sample B, 1 test] and 10.8 nM [sample B, mean of 2 tests]
[5]
  TGI: 12.7 µM [mean of 2 tests] and 26.7 nM, 145 nM [mean of 5 tests]
[6]
  GI50: < 0.1 nM, 1.99 nM [sample A, 1 test] and 8.68 nM [sample B, mean of 4 tests] and 2.65 nM [sample B, mean of 8 tests]
  TGI: 0.187 nM, 14.8 nM [sample A, 1 test] and 51.6 nM [sample B, mean of 4 tests] and 110 nM [sample B, mean of 8 tests]
[7]
  GI50: < 0.1 nM, 1.14 nM [sample A, 1 test] and 0.968 nM [sample B, mean of 6 tests]
  TGI: 0.113 nM, 121 nM [sample A, 1 test] and 9.37 nM [sample B, mean of 6 tests]
[8]
  GI50: < 0.1 nM, 26.8 nM [sample A, 1 test] and 8.72 nM [sample B, mean of 2 tests]
  TGI: 9.33 nM [sample A, 1 test] and 503 nM [sample B, mean of 2 tests]
[9]
  GI50: < 0.1 nM, 32.3 nM [sample A, 1 test] and 12.9 nM [sample B, mean of 6 tests] and 12.5 nM [sample B, mean of 7 tests]
  TGI: 0.475 nM, 909 nM [sample A, 1 test] and 111 nM [sample B, mean of 2 tests] and 67 nM [sample B, mean of 6 tests] and 131 nM [sample B, mean of 7 tests]
[10]
  GI50: < 0.1 nM, 1.42 nM [sample A, 1 test] and 3.4 nM, 7.5 nM [sample B, mean of 4 tests]
[11]
  GI50: < 0.1 nM, 21.3 nM [sample A, 1 test] and 10.2 nM [sample B, mean of 4 tests] and 8.55 nM [sample B, mean of 7 tests]
  TGI: 1.29 nM [sample A, 1 test] and 189 nM [sample B, 1 test] and 216 nM [sample B, mean of 4 tests] and 153 nM [sample B, mean of 7 tests]
[12]
  GI50: < 0.1 nM, 4.61 nM [sample A, 1 test] and 8.96 nM [sample B, mean of 4 tests] and 3.64 nM [sample B, mean of 8 tests]
  TGI: < 0.1 nM, 25.2 nM [sample A, 1 test] and 136 nM [sample B, mean of 4 tests] and 34.5 nM [sample B, mean of 8 tests]
[13]
  GI50: < 0.1 nM, 2.82 nM [sample A, 1 test] and 9.47 nM [sample B, mean of 5 tests] and 4.07 nM [sample B, mean of 6 tests]
  TGI: 1.5 nM [sample A, 1 test] and 244 nM [sample B, mean of 2 tests] and 39.9 nM [sample B, mean of 5 tests] and 51.9 nM [sample B, mean of 6 tests]
[14]
  GI50: < 0.1 nM [sample A, 1 test] and 3.53 nM [sample B, mean of 3 tests]
  TGI: 0.731 nM [sample A, 1 test] and 136 nM [sample B, 1 test] and 13 nM [sample B, mean of 3 tests]
[15]
  GI50: < 0.1 nM, 3.31 nM [sample A, 1 test] and 8.48 nM [sample B, mean of 6 tests] and 1.57 nM [sample B, mean of 7 tests]
  TGI: 17.5 nM, 263 nM [sample A, 1 test] and 1.28 µM [sample B, mean of 2 tests] and 30.1 nM [sample B, mean of 6 tests] and 79.8 nM [sample B, mean of 7 tests]
[16]
  GI50: < 0.1 nM, 4.66 nM [sample A, 1 test] and 9.41 nM [sample B, mean of 5 tests] and 1.43 nM [sample B, mean of 6 tests]
  TGI: 23 nM [sample A, 1 test] and 1.44 µM [sample B, 1 test] and 716 nM [sample B, mean of 5 tests] and 610 nM [sample B, mean of 6 tests]
[17]
  TGI: 2.44 nM, 104 nM [sample A, 1 test] and 214 nM [sample B, mean of 5 tests] and 83.7 nM [sample B, mean of 7 tests]
[18]
  GI50: < 0.1 nM, 22.6 nM [sample A, 1 test] and 9.96 nM [sample B, mean of 5 tests] and 4.68 nM [sample B, mean of 7 tests]
  TGI: 130 nM [sample A, 1 test] and 3.45 µM [sample B, mean of 2 tests] and 174 nM [sample B, mean of 5 tests] and 77.4 nM [sample B, mean of 7 tests]
[19]
  TGI: 17.9 nM and 432 nM
[20]
  TGI: 278 nM, 110 nM [sample A] and 93 nM, < 18.8 nM [sample B]
[21]
  GI50: < 0.1 nM, 40.2 nM [sample A, 1 test] and < 11.2 nM [sample B, mean of 2 tests] and 9.56 nM [sample B, mean of 3 tests] and 8.29 nM [sample B, mean of 5 tests]
  TGI: 0.123 nM, 251 nM [sample A, 1 test] and < 25.6 nM [sample B, mean of 2 tests] and 19 nM [sample B, mean of 3 tests] and 29.2 nM [sample B, mean of 5 tests]
[22]
  GI50: < 0.1 nM, 3.56 nM [sample A, 1 test] and 9.83 nM [sample B, mean of 4 tests] and 3.83 nM [sample B, mean of 5 tests]
  TGI: 20.2 nM, 186 nM [sample A, 1 test] and 5.86 µM [sample B, mean of 2 tests] and 110 nM [sample B, mean of 4 tests] and 377 nM [sample B, mean of 5 tests]
[23]
  GI50: < 0.1 nM, 36.1 nM [sample A, 1 test] and < 28.2 nM [sample B, mean of 2 tests] and 5.36 nM [sample B, mean of 3 tests]
  TGI: 2.15 nM, 157 nM [sample A, 1 test] and 105 nM [sample B, mean of 3 tests]
[24]
  GI50: < 0.1 nM, 8.31 nM [sample A, 1 test] and 3.72 nM [sample B, mean of 3 tests]
  TGI: 0.176 nM, 108 nM [sample A, 1 test] and 15.9 nM [sample B, mean of 2 tests] and 17.8 nM [sample B, mean of 3 tests]
[25]
  GI50: < 0.1 nM [sample A, 1 test] and 2.97 nM [sample B, mean of 3 tests]
  TGI: 0.15 nM [sample A, 1 test] and 15.8 nM [sample B, mean of 3 tests]
